In paper PMC7819943, “Rice protein-binding microarrays: a tool to detect cis-acting elements near promoter regions in rice”:
This is one part of the list.

The sequences below were run against T1, OsWOX13 (Oryza sativa, UniProt Q5QMM3 1-267) (assay: protein-binding microarray (RPBM); PBS, 2% BSA, 51.3 ng/ul salmon testes DNA, 50 uM zinc acetate, 200 nM TF, 25 C, 1 h; high values mean tight binding). Conditions: protein: recombinant; tags: N-terminal polyhistidine and DsRed monomer fusion (pET32a); label: CyDye5-dUTP incorporated in the synthesized complementary strand; 3' TTTTT single-stranded linker to array surface; dsDNA, one strand shown.
T1 sequence: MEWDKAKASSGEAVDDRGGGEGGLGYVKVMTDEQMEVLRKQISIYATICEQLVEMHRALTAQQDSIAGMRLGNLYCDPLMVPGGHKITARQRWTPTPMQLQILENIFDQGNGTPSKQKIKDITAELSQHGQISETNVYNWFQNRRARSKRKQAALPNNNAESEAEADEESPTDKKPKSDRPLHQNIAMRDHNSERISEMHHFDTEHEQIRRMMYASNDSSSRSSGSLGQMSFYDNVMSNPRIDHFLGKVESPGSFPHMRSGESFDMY
How it was run: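 Ni–NTA purification followed expression in E. coli BL21-CodonPlus of transcription factors fused N-terminally to a polyhistidine tag and DsRed. At 200 nM in PBS with 2% BSA, salmon testes DNA and 50 µM zinc acetate, the protein was incubated for 1 h at 25 °C with a custom Agilent array that had been primer-extended with Cy5-dUTP and blocked with 2% BSA. After washing, the array was read on an Axon 4000B scanner. The binding signal is per-feature fluorescence intensity in arbitrary units.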
With “CGCCTAATCATTCTTTTAGTGGTAAGCGACATACCAGTTGCGGAGTCACCTAGTGCAG” the binding signal was 3260 fluorescence intensity (a.u.).
“CGCGGGGAATCAACTAGTTGATTTAAATAATACAAACCTACGGAGTCACCTAGTGCAG” was tested, and the binding signal was 6290 fluorescence intensity (a.u.).
For “CCTGAATGAATATCACAAATACCATATCCATCGGTGAAAGCGGAGTCACCTAGTGCAG”, the binding signal was 3780 fluorescence intensity (a.u.).
In the case of “TGGAGTAATTACCATCTCCTGTGTCTATGTGAAGCAACTTCGGAGTCACCTAGTGCAG”, the binding signal is reported as 9240 fluorescence intensity (a.u.).
“TAGATAGATAGAAGATAATAGAAGATAGATAATAGAAGATCGGAGTCACCTAGTGCAG” was tested, and the binding signal was 10200 fluorescence intensity (a.u.).
“GAAAATTAGTAGAGAACTAATTAGGGATAAAGTCATTATTCGGAGTCACCTAGTGCAG” was tested, and the binding signal was 13000 fluorescence intensity (a.u.).
In the case of “CCATGCACTAAATTAAATGAGTAGGCATCGGCTCTGCTGACGGAGTCACCTAGTGCAG”, the binding signal is reported as 3190 fluorescence intensity (a.u.).
In the case of “AGTTTAAAGATTGATTTAGATTTAGATTCCACGTAATCGCCGGAGTCACCTAGTGCAG”, the binding signal is reported as 19700 fluorescence intensity (a.u.).
In the case of “AACGTGACTGTCCCATTATCTTGTGTCCACTTTATTTATACGGAGTCACCTAGTGCAG”, the binding signal is reported as 4140 fluorescence intensity (a.u.).
For “GCATGAAGACATCAATTAATTAATTGCATGGTTACATGCACGGAGTCACCTAGTGCAG”, the binding signal was 37200 fluorescence intensity (a.u.).
With “TGTCCGTCCCTGTCTGATTCCGCCGCGCCTGACCAGACTCCGGAGTCACCTAGTGCAG” the binding signal was 3400 fluorescence intensity (a.u.).
For “TTTGATGGATCGGTGTGTACTCATGGTTGTGGTATCTGCCCGGAGTCACCTAGTGCAG”, the binding signal was 14400 fluorescence intensity (a.u.).
“AAAACAAATTTATAGTGAACAGAAACTCATCGCCATCAAACGGAGTCACCTAGTGCAG” was tested, and the binding signal was 5090 fluorescence intensity (a.u.).
For “GTGATTTGTGCCGGGATTAAGGCCCATCAAAACAAGGCCTCGGAGTCACCTAGTGCAG”, the binding signal was 4970 fluorescence intensity (a.u.).
In the case of “GGTAATCAATCTCCCTACGGCCCTGAACTGCAGGTGGTTGCGGAGTCACCTAGTGCAG”, the binding signal is reported as 8450 fluorescence intensity (a.u.).
For “TGTTAGTGATTTGTTGCACCGTCGATGTGTTTCCTGTAGTCGGAGTCACCTAGTGCAG”, the binding signal was 9560 fluorescence intensity (a.u.).
With “GTTTTGATTTATCATCGCTGATAAGTCATATTAGTATGTTCGGAGTCACCTAGTGCAG” the binding signal was 24300 fluorescence intensity (a.u.).
In the case of “TAAAATATAATCATATATTTAAATATAGTATATTTTCATCCGGAGTCACCTAGTGCAG”, the binding signal is reported as 6160 fluorescence intensity (a.u.).
With “GGCAATTATAATTTCTAATTGCGGTGTGATTAGGTTAATTCGGAGTCACCTAGTGCAG” the binding signal was 47200 fluorescence intensity (a.u.).
For “CAATAACAGATTGAGGCAACAAACCCGAACGGTATTGAAACGGAGTCACCTAGTGCAG”, the binding signal was 23000 fluorescence intensity (a.u.).
In the case of “CATGTATGTGATTGGTGTCACGGTTTGGCCGCCGTCGCCACGGAGTCACCTAGTGCAG”, the binding signal is reported as 35800 fluorescence intensity (a.u.).
With “CAGAGATTGAGAAGATGAAGAATGAGAATTTGATGCTCTCCGGAGTCACCTAGTGCAG” the binding signal was 23100 fluorescence intensity (a.u.).
“TGACTTTTGATGATGGATGATTCCTGCAAAGTTGCTTGATCGGAGTCACCTAGTGCAG” was tested, and the binding signal was 4230 fluorescence intensity (a.u.).
For “AATTAATAAATCTTAATGGACCTCACGCCGGTTCAAACCTCGGAGTCACCTAGTGCAG”, the binding signal was 3570 fluorescence intensity (a.u.).
With “TATTCGATTAAAACTCTCAATCATGTGTGGTTAACACAAACGGAGTCACCTAGTGCAG” the binding signal was 7490 fluorescence intensity (a.u.).
With “CACTGTCAATTACACCGAAGCAGACAGAAGGTGTTCCATACGGAGTCACCTAGTGCAG” the binding signal was 24200 fluorescence intensity (a.u.).
With “CGACCATCAATCAGTCGCTTGCTACGTCGCTTTCCTGATTCGGAGTCACCTAGTGCAG” the binding signal was 12700 fluorescence intensity (a.u.).
With “TCGCAATCAAGCTCATCTTTCCTGAAGGAGTTTGGGCTCGCGGAGTCACCTAGTGCAG” the binding signal was 5200 fluorescence intensity (a.u.).
With “ATGATTGGCGCTAATTACCGATTCTGCGTGATTTTAATAACGGAGTCACCTAGTGCAG” the binding signal was 39800 fluorescence intensity (a.u.).
With “TTGATAAAATTGATAAATATATAGTTGCATTTAGTTTAGTCGGAGTCACCTAGTGCAG” the binding signal was 25900 fluorescence intensity (a.u.).
“CGGTTAGTTAGTTGATTAGTTATCTGCATGTTTCTGTTTTCGGAGTCACCTAGTGCAG” was tested, and the binding signal was 8750 fluorescence intensity (a.u.).
“GAAATTAATCAACATCGTCAAACATTCCAAAACGAAGAGACGGAGTCACCTAGTGCAG” was tested, and the binding signal was 10800 fluorescence intensity (a.u.).
“ATAAATAGACGTCGTGCTGCTAGCGTCTGATGAATGAACACGGAGTCACCTAGTGCAG” was tested, and the binding signal was 6980 fluorescence intensity (a.u.).
“ATAGATAGATAGATCGGCGTGGGAGAAGACGACATCGCCGCGGAGTCACCTAGTGCAG” was tested, and the binding signal was 9180 fluorescence intensity (a.u.).
With “GCAGTCATAAACAATTAAAATAGTACTAATACTATTTCTACGGAGTCACCTAGTGCAG” the binding signal was 3480 fluorescence intensity (a.u.).
With “ATAATTTAAATGCTAAAACGACAATTGAATTGAAACTAAACGGAGTCACCTAGTGCAG” the binding signal was 6290 fluorescence intensity (a.u.).
For “AACCTTACTAAATTTTGGCAAATTAGTAATATTGCTAAAACGGAGTCACCTAGTGCAG”, the binding signal was 3690 fluorescence intensity (a.u.).
“TGGCAATTAATATCCTAAGTTGATCACTTAATTAAGCCATCGGAGTCACCTAGTGCAG” was tested, and the binding signal was 12000 fluorescence intensity (a.u.).
With “ACGAGTGAAATTGACTTGAGGCGTCGAGTTGCCTTATTGCCGGAGTCACCTAGTGCAG” the binding signal was 4980 fluorescence intensity (a.u.).
For “AGATAGACAGGAAGACAGATAGATAGATAGTTGTATGATCCGGAGTCACCTAGTGCAG”, the binding signal was 10200 fluorescence intensity (a.u.).
In the case of “AATAACAGGTTGACAACGTTAAGTATGTTATTAACCACATCGGAGTCACCTAGTGCAG”, the binding signal is reported as 4680 fluorescence intensity (a.u.).
For “TCTACTAGTAAATTTACGTTCTATCTTTAATACCTACTTCCGGAGTCACCTAGTGCAG”, the binding signal was 4090 fluorescence intensity (a.u.).
